{
  "source": "the supplement of paper PMC11417369",
  "note": "± gives the standard deviation of the averaged measurements. The list shows a part of the results.",
  "data": [
    {"test_system": "PfAP2-I AP2 domain 3 (GST-tagged)", "assay": "gcPBM binding intensity (ln(normalized median fluorescence intensity)); higher = stronger DNA binding", "method_in_brief": "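After 1 h on an Agilent 4 × 180k array of primer-extended double-stranded 36-bp intergenic genomic probes and negative controls, bound GST-tagged P. falciparum DNA-binding domains were detected with Alexa488 anti-GST antibody and scanned at 488 nm. The domains had been expressed in E. coli, and binding took place in 1× PBS with 1% milk, 0.2 mg/ml BSA, 0.5% salmon testes DNA and 0.03% Triton X-100. Binding intensity is the highest Masliner-normalised natural-log median intensity across replicate spots of either probe orientation.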", "values": [
      {"sequence": "ATGGACTTTTATAGTTGTACATACTATGAGAACTTT [XGTACX_site2800]", "gcPBM binding intensity (ln)": "8.12 ± 0.23"},
      {"sequence": "TAAAATAAATTGTGCACACATATTTATAAATATGAA [CACACA_site2331]", "gcPBM binding intensity (ln)": "11.3 ± 0.35"},
      {"sequence": "TACATATAAAAGTACACACACACACCCATATATATA [CACACA_site941]", "gcPBM binding intensity (ln)": "8.34 ± 0.61"},
      {"sequence": "GTTTATCACAGCCACGCACACATAATATATGTATAT [CACACA_site3669]", "gcPBM binding intensity (ln)": "8.16 ± 0.5"},
      {"sequence": "TATTGCCCGAAACACACACACATATATATATATATA [CACACA_site2491]", "gcPBM binding intensity (ln)": "9.31 ± 0.4"},
      {"sequence": "TATAATATTTACGACAGTACATATATATATATGTAT [XGTACX_site8332]", "gcPBM binding intensity (ln)": "7.74 ± 0.31"},
      {"sequence": "AAATAATTTGTTGACACACACACACCCATACATATA [CACACA_site2285]", "gcPBM binding intensity (ln)": "8.23 ± 0.4"},
      {"sequence": "ATTATATGTAACACGTGTACCTATTTATGTATGCTT [XGTACX_site5748]", "gcPBM binding intensity (ln)": "7.79 ± 0.66"},
      {"sequence": "GATATATAAACATATACACACAAAAACATATTTATA [CACACA_site6734]", "gcPBM binding intensity (ln)": "7.68 ± 0.22"},
      {"sequence": "AATATACAAAATATCACACATATAAAATAATATATA [CACACA_site6067]", "gcPBM binding intensity (ln)": "7.49 ± 0.36"},
      {"sequence": "AATGGTTCAACGTAGTGTACGTAATAAATAATAAAT [XGTACX_site8668]", "gcPBM binding intensity (ln)": "7.97 ± 0.65"},
      {"sequence": "AAATAATATGTAATCAAATTCACCAAACGAAAAAAA [TGCATGCA_negctrl_site33]", "gcPBM binding intensity (ln)": "7.62 ± 0.61"},
      {"sequence": "TGATAATTTCATTTTGCATGTGACAATACAAGATGT [TGCATGCA_site203]", "gcPBM binding intensity (ln)": "7.79 ± 0.64"},
      {"sequence": "ATCCAAAAAATTAATGCATGCGCAAAAAATAGCTTA [TGCATGCA_site615]", "gcPBM binding intensity (ln)": "7.88 ± 0.63"},
      {"sequence": "TGTCCTTATTTGCACACACACATATAAGAAATTTAA [CACACA_site7485]", "gcPBM binding intensity (ln)": "10.1 ± 0.4"},
      {"sequence": "AAAAAAAAAACATACACACACATATATATATATATG [CACACA_site1586]", "gcPBM binding intensity (ln)": "8.14 ± 0.22"},
      {"sequence": "TTTGTTTTATCTTATATGCACACGATAAAAAAAAAA [CACACA_site2673]", "gcPBM binding intensity (ln)": "9.42 ± 0.042"},
      {"sequence": "AGATGATATACGTAAACACACAAATAAAAAAAATTT [CACACA_site3327]", "gcPBM binding intensity (ln)": "7.74 ± 0.73"},
      {"sequence": "ACAAAAAAATAAGGTGCACACAAAAAAAAAAAAAAA [CACACA_site8171]", "gcPBM binding intensity (ln)": "10.7 ± 0.76"},
      {"sequence": "ATATAGCATATAATTTGTACACAGGCCATACCTGAA [XGTACX_site533]", "gcPBM binding intensity (ln)": "7.83 ± 0.72"},
      {"sequence": "GAGTTCAGTTTTTGTTGTACTTATTCTTAATATGTC [XGTACX_site6083]", "gcPBM binding intensity (ln)": "7.93 ± 0.38"},
      {"sequence": "TTTTTTTTTTTTTGATGTACTTATTTAATAAGATAT [XGTACX_site376]", "gcPBM binding intensity (ln)": "8.22 ± 0.58"},
      {"sequence": "TATATGGCATATTTCACACACACATAATGAATATTA [CACACA_site9181]", "gcPBM binding intensity (ln)": "7.79 ± 0.56"},
      {"sequence": "AATACGTTATTATTTTGTACATATAAATAATAAGTT [XGTACX_site815]", "gcPBM binding intensity (ln)": "7.64 ± 0.49"},
      {"sequence": "ACTCTTTTAACGCAAAGTACTTTTTAAAATATTTCG [XGTACX_site7534]", "gcPBM binding intensity (ln)": "8.46 ± 0.52"},
      {"sequence": "ATTTCTATTTGGGTTAGTACATATAAGTCTATTTTC [XGTACX_site3234]", "gcPBM binding intensity (ln)": "7.92 ± 0.52"},
      {"sequence": "AACATACGAATATTCACACATAAATATATAAATCGC [CACACA_site4672]", "gcPBM binding intensity (ln)": "7.67 ± 0.56"},
      {"sequence": "TTTTTTTTTTCTTTTTGTACATATTCATAACAAGTA [XGTACX_site2784]", "gcPBM binding intensity (ln)": "8.12 ± 0.5"},
      {"sequence": "TATATAATCGAGTGCACACACAAAAAAAAAGTGAAC [CACACA_site1483]", "gcPBM binding intensity (ln)": "10.1 ± 0.45"},
      {"sequence": "TATTATATATATATCACACATATATTCATGTACATA [CACACA_site5432]", "gcPBM binding intensity (ln)": "7.96 ± 0.52"},
      {"sequence": "ATATATAATATTTATTGTACTATTTTATTTTTATAA [XGTACX_site705]", "gcPBM binding intensity (ln)": "7.84 ± 0.2"},
      {"sequence": "TTTGACATACCTCTTGCATGTGAAAAACTTTTCGCT [TGCATGCA_site364]", "gcPBM binding intensity (ln)": "7.61 ± 0.82"},
      {"sequence": "AAAAAAGACCATGTTAGTACATAAGATTTTTTTCAT [XGTACX_site4298]", "gcPBM binding intensity (ln)": "7.53 ± 0.57"},
      {"sequence": "TTCTAGAAAACTGATCGTACAAATAAATATAGACAC [XGTACX_site2808]", "gcPBM binding intensity (ln)": "8.46 ± 0.16"},
      {"sequence": "ATATATTATAATGATACACACAAGAAATAAAATTAC [CACACA_site3095]", "gcPBM binding intensity (ln)": "8.04 ± 0.54"},
      {"sequence": "TATAAAATAAAAGTAAATATATATATATATATATAT [TGCATGCA_negctrl_site208]", "gcPBM binding intensity (ln)": "9.29 ± 0.52"},
      {"sequence": "AAAATAGGGATCACGTGTACATATAAAGTGACATAC [XGTACX_site8190]", "gcPBM binding intensity (ln)": "8.23 ± 0.8"},
      {"sequence": "AATGCATACACATATTGTACTAAGCCATACAACACA [XGTACX_site305]", "gcPBM binding intensity (ln)": "7.82 ± 0.69"},
      {"sequence": "TATGTAGGTAAAAATTGTACTTTTTTTTTAATATTT [XGTACX_site2303]", "gcPBM binding intensity (ln)": "7.67 ± 0.28"},
      {"sequence": "TGACATAATGTGTGTAGTACATATATCGTTATTTGA [XGTACX_site5152]", "gcPBM binding intensity (ln)": "7.71 ± 0.54"},
      {"sequence": "TGAATAAATATAAAAGGTACACATATAAATATATAT [XGTACX_site6349]", "gcPBM binding intensity (ln)": "7.74 ± 0.58"},
      {"sequence": "TAACTCTATTTTTTTGCATGCTGAAGCTATGAGTTT [TGCATGCA_site821]", "gcPBM binding intensity (ln)": "7.51 ± 0.85"},
      {"sequence": "CACAAAAATAGACACACACACATATAAATAAATATA [CACACA_site6598]", "gcPBM binding intensity (ln)": "7.67 ± 0.44"},
      {"sequence": "ATAATATTATGTGTGAATATATCTTTAAAAAGGATA [GTGCAC_negctrl_site15]", "gcPBM binding intensity (ln)": "7.46 ± 0.53"}
    ]}
  ]
}
